About 5,000 (1.2%) of roughly 410,000 compounds were called active. Inconclusive results, whose numbers are uncertain, are shown with a selection of clear calls. The call rests on the fitted dose curve; in most records, active means well fitted inhibition curve with a large enough effect; inconclusive means small, poorly fitted or top-dose-only effect; inactive means no such curve, though single readings can be large or run the other way. A potency beside an inconclusive call is a rough fit, not a confirmed value.
Assay: qHTS for Inhibitors of TGF-b; further: nearly all actives have a fitted effect of over 65% in size
Conditions: HepG2 CAGA-GFP TGF-b/SMAD3 reporter, GFP fluorescence, 18 h, TGF-beta stimulated, 500 pg/mL final; series mostly up to 46.1 µM; activity, negative = inhibition: at the top concentration
Method in brief: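 Smad-responsive CAGA-GFP expression was quantified in HEPG2 cells exposed to compounds and 500 pg/mL final TGF-beta for 18 h at 37 degrees C; unstimulated wells defined full inhibition.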
On the % scale 0 is the no-effect control and ±100 the full control effect; potency means the concentration at half of the fitted maximal effect; tags describe the fitted curve by direction and shape.

Compound	Potency	activity, negative = inhibition
O=C(CSc1n[nH]c(=O)n1C1CC1)N1N=C(c2ccc(Cl)cc2)CC1c1ccco1 (stereo not given)	inconclusive: 14.1 µM [inhibitor, single point]	
CC(C)(C)NC(=S)Nc1cccc(C(F)(F)F)c1	inconclusive: 25.1 µM [inhibitor, single point]	
C#CCOCCOCCOCCNc1nc(N2CCN(C(=O)CCCCCCCCCCNC(=O)[C@H](CCCCN)n3cc(C)nn3)CC2)nc(N2CCN(C(=O)CCCCCCCCCCNC(=O)[C@H](CO)n3cc(CCCSC)nn3)CC2)n1	inconclusive: 35.5 µM [inhibitor, single point]	
CCOC(=O)c1c(-c2ccccc2)oc2ccc(NS(=O)(=O)c3cc(C)c(C)cc3C)cc12	inconclusive: 25.1 µM [inhibitor, single point]	
Cc1cc(O)c2c(c1)C(=O)c1cc(O)cc(O)c1C2=O		inactive: -7.14%
Cc1ccccc1NC(=O)c1ccc2c(c1)c(C)c(C)n2Cc1ccccc1	inconclusive: 5.62 µM [inhibitor, single point]	
O=C(CN1N=C(c2ccc(Cl)cc2)CCC1=O)NCCc1ccc(Cl)cc1	inconclusive: 25.1 µM [inhibitor, single point]	
CC(C)=CCc1cc(-c2oc3cc(O)cc(O)c3c(=O)c2O)ccc1O	inconclusive: 22.4 µM [inhibitor, single point]	
CC(C)CC(NC(N)=O)C(=O)Nc1cccc([N+](=O)[O-])c1 (stereo not given)	inconclusive: 17.8 µM [inhibitor, single point]	
Cc1c(/C=N\NC(=O)C2COc3ccccc3O2)c2ccccc2n1C (stereo not given)	active: 8.91 µM	
CCC(=O)Nc1ccc(SC#N)cc1C	inconclusive: 14.1 µM [inhibitor, single point]	
Cc1cccc(OCC(=O)N2CCN(C(=O)c3cccs3)CC2)c1	inconclusive: 25.1 µM [inhibitor, single point]	
CCOC(=O)C1CCCN(C(=O)c2ccc(-c3ccc([N+](=O)[O-])cc3)o2)C1 (stereo not given)	inconclusive: 35.5 µM [inhibitor, single point]	
Cc1ccc(C)c(N2CCN(C(=O)C34CC5CC(C3)CC(n3nnc(C)n3)(C5)C4)CC2)c1	inconclusive: 20 µM [inhibitor, partial curve, poor fit]	
CCOc1ccc(C(=O)Nc2ccc(NC(=O)c3cccs3)cc2)cc1[N+](=O)[O-]		inactive: -1.1%
Cc1nc(N2CCN(C(=O)c3ccco3)CC2)c2c3c(sc2n1)CC(C)CC3 (stereo not given)	inconclusive: 35.5 µM [inhibitor, single point]	
CC(=O)c1ccc(NC(=O)c2ccc3c(=O)n4c(nc3c2)CCCCC4)cc1		inactive: -15.6%
CCOc1ccc(N(CC)S(=O)(=O)c2cc(Br)cc3c2N(C(C)=O)C(C)C3)cc1 (stereo not given)	active: 10 µM	
Cc1ccccc1NCc1ccccc1O		inactive: -20.8%
CN(Cc1ccccc1)S(=O)(=O)c1nnc(NC(=O)c2cccc(Cl)c2)s1		inactive: -34.2%
Cc1ccccc1NC(=O)CSc1nc2nccnc2c(=O)n1CCc1c[nH]c2ccccc12	inconclusive: 35.5 µM [inhibitor, single point]	
O=C(NCc1ccco1)C(c1ccncc1)N(CCC1=CCCCC1)C(=O)Cn1nnc2ccccc21 (stereo not given)	inconclusive: 0.501 µM [inhibitor, full curve, poor fit]	

Compound	Potency	activity, negative = inhibition
COc1cc(S(=O)(=O)N2CCN(Cc3cccs3)CC2)ccc1NC(C)=O	inconclusive: 25.1 µM [inhibitor, single point]	
N=C1N(c2ccccc2)C(=S)C(=Nc2ccccc2)N1c1ccccc1	active: 1.58 µM	
COc1ccc(C(=O)N2CCN(Cc3nc(CC4CC4)no3)CC2)cc1		inactive: -13.4%
CC1CCCc2sc3nc(SCC(=O)c4ccc(Br)cc4)nc(N)c3c21 (stereo not given)	inconclusive: 35.5 µM [inhibitor, single point]	
COC(=O)CCCC1=CC2=CC(=O)C(C)(OC(=O)c3cccs3)C(=O)C2=CN1CC1CC1 (stereo not given)	inconclusive: 20 µM [inhibitor, single point]	
CC(=O)N(Cc1ccccc1)C(CC(=O)NCc1ccccc1)C(=O)O (stereo not given)		inactive: 9.46%
CCCC(=O)Oc1c(S(=O)(=O)c2ccc(C)cc2)c(C)nn1C(C)(C)C	inconclusive: 15.8 µM [inhibitor, single point]	
COc1ccc(S(=O)(=O)c2cnc3ccc(Cl)cc3c2N2CCCCC2C)cc1 (stereo not given)	inconclusive: 12.6 µM [inhibitor, single point]	
N#CC1=C(N)Oc2n[nH]c(-c3cccnc3)c2C1c1ccc([N+](=O)[O-])o1 (stereo not given)	inconclusive: 25.1 µM [inhibitor, single point]	
CC1CCCCN1C(=O)CSc1n[nH]c(-c2ccccc2Cl)n1 (stereo not given)	inconclusive: 3.55 µM [inhibitor, single point]	
CCOC(=O)C1=C(C)OC(N)=C(C#N)C1c1cccc(C)c1 (stereo not given)		inactive: 0.965%
O=C(CC1N=C2c3ccccc3N=C(SCc3cccc(Cl)c3)N2C1=O)NCc1ccc2c(c1)OCO2 (stereo not given)	inconclusive: 7.94 µM [inhibitor, partial curve, poor fit]	
Cc1ccc(C(=O)/C=C/c2ccccc2[N+](=O)[O-])cc1	inconclusive: 35.5 µM [inhibitor, single point]	
COc1cc(Nc2nc(SCC(=O)c3ccc(Br)cc3)nc3ccccc23)cc(OC)c1	inconclusive: 1.26 µM [inhibitor, full curve, poor fit]	
CCOC(=O)c1sc(=S)n(CC)c1N	inconclusive: 35.5 µM [inhibitor, single point]	
CN(CCOc1ccc(F)cc1)Cc1ccccc1		inactive: -12.8%
N#C/C(=C\C1CC=CCC1)c1nc2ccccc2[nH]1 (stereo not given)		inactive: 5.95%
CCN(Cc1ccccc1)S(=O)(=O)c1ccc(C(=O)N(CCCN(C)C)c2nc3c(C)c(C)ccc3s2)cc1	inconclusive: 25.1 µM [inhibitor, partial curve, poor fit]	
CS(=O)(=O)N(CC(O)Cn1c2ccccc2c2ccccc21)c1ccccc1 (stereo not given)	inconclusive: 35.5 µM [inhibitor, partial curve, poor fit]	
CCOC(=O)c1ccc(N2C(=O)C=CC2=O)cc1	inconclusive: 35.5 µM [inhibitor, single point]	
O=C(Nc1ccc(Cl)c(Cl)c1)N1CCSC1c1ccco1 (stereo not given)	inconclusive: 35.5 µM [inhibitor, single point]	
S=C1NC2=C(CCC/C2=C\c2ccccc2)C(c2ccccc2)N1 (stereo not given)	inconclusive: 20 µM [inhibitor, single point]	

Compound	Potency	activity, negative = inhibition
COc1ccccc1Cc1c(-c2ccc(Cl)cc2)nc2ccc(Cl)cn12		inactive: -15.7%
CCOC(=O)C(NC(=O)c1ccccc1)(OCC1(CC)COC1)C(F)(F)F (stereo not given)		inactive: 3.26%
CCOc1ccc(CCNC(=O)c2cc3c(=O)oc4ccc(C)cc4c3s2)cc1OCC	inconclusive: 20 µM [inhibitor, partial curve, poor fit]	
O=C(CCCN1C(=O)CCC1=O)Nc1ccccc1F	inconclusive: 35.5 µM [inhibitor, single point]	
Cc1ccc(Cc2c(C)nc3nc(SCC(=O)NC4CCC(C)CC4)nn3c2C)cc1 (stereo not given)	inconclusive: 14.1 µM [inhibitor, partial curve, poor fit]	
CCOc1ccc2nc(NC(NC(=O)CC)(C(=O)OC)C(F)(F)F)sc2c1 (stereo not given)	inconclusive: 35.5 µM [inhibitor, single point]	
CCC1=C(OC(=O)N(CC)CC)N2C(=O)OC(=NCCOC)[C@]2(Cc2ccccc2)[C@H]2C1=CC[C@H]1C(=O)N(CC(=O)OC)C(=O)[C@H]12	inconclusive: 11.2 µM [inhibitor, single point]	
O=S(=O)(NCCCCCCNS(=O)(=O)c1c(F)cccc1F)c1ccc2c(c1)OCCO2	inconclusive: 11.2 µM [inhibitor, partial curve, poor fit]	
COc1ccc(O)c(C(=O)CC(=O)c2ccccc2C)c1	inconclusive: 12.6 µM [inhibitor, partial curve]	
O=C(COc1ccc(Br)cc1CO)Nc1ccc(F)cc1	inconclusive: 3.16 µM [inhibitor, single point]	
COc1ccc(CC(N)c2csc(Nc3ccc(C(=O)c4ccccc4)cc3)n2)cc1 (stereo not given)	inconclusive: 35.5 µM [inhibitor, single point]	
O=C(N/N=C/c1cn(-c2cccs2)nc1-c1ccccc1)c1ccccc1O	active: 11.2 µM	
C=C(C(=O)c1ccccc1)C(c1ccccc1)C(C)C(=O)c1ccccc1 (stereo not given)	inconclusive: 35.5 µM [inhibitor, single point]	
CCCCCCCNC(=O)C1(CC2CC(c3cccc(Br)c3)=NO2)CCN(C(=O)C2(C)CC2)CC1 (stereo not given)	inconclusive: 25.1 µM [inhibitor, single point]	
Cc1c(C(=O)NCc2cccc(Cl)c2)sc2ncnc(N(C)C3CCCCC3)c12	inconclusive: 11.2 µM [inhibitor, single point]	
O=C(Nc1ccccc1Cl)C1CCCN(S(=O)(=O)c2ccc(-n3cnnn3)cc2)C1 (stereo not given)		inactive: -3.18%
COc1ccc(NC(=O)N(Cc2cc3cc(OC)c(OC)cc3[nH]c2=O)CC2CCCO2)cc1 (stereo not given)		inactive: -4.25%
COC(=O)CC1(c2ccc(OC)cc2)C(=O)c2ccccc2C1=O	inconclusive: 3.55 µM [inhibitor, partial curve, poor fit]	
Cc1cccc(CSc2ncc(Cl)c(C(=O)Nc3sc4c(c3C(N)=O)CCCC4)n2)c1	inconclusive: 3.16 µM [inhibitor, single point]	
O=C(O)c1ccccc1C(=O)NCc1ccccc1		inactive: 7.65%
Cc1ccc(C(=O)CSc2nc(-c3ccccc3)nc3c2CCCC3)cc1		inactive: 0.0285%
